Out of some 110,000 compounds screened, about 230 (0.21%) showed an effect of 50% or more. The list shows a part of the results.
molecular target: DPAP1 (Plasmodium falciparum, UniProt Q8IIJ9); assay: primary screen, percent inhibition; read by cleavage of a fluorogenic dipeptide substrate; higher = more effect of the substance; design: species or system P. falciparum D10 trophozoite lysates; single well
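Also: 30 min substrate incubation versus DMSO and 10 µM JCP410 controls.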

Sequence of DPAP1 (Q8IIJ9 whole entry, looked up): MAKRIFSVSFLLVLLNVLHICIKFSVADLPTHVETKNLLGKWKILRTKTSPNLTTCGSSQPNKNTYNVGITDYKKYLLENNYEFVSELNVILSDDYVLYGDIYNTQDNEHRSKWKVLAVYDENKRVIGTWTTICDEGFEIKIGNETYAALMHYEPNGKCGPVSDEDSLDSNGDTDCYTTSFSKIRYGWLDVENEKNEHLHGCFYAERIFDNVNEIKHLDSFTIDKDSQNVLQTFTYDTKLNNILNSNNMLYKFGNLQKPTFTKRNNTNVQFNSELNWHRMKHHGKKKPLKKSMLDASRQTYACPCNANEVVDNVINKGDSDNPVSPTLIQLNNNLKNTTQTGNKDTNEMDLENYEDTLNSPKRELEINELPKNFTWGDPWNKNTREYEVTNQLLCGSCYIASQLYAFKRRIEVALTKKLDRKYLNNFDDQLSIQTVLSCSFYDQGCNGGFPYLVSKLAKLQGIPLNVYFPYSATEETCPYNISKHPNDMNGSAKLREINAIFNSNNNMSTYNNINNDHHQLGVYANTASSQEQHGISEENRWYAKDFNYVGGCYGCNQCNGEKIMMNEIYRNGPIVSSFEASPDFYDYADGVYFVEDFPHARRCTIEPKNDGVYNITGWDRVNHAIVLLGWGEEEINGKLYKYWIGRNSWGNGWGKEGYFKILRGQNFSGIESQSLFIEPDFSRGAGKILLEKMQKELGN

Compound | % Inhibition @ 10 uM
CCOC(=O)c1c(NC(=O)c2ccc(F)cc2)sc2c1CCN(C(C)=O)C2 | 1.88%
NS(=O)(=O)c1ccc2oc3ccc(S(N)(=O)=O)cc3c2c1 | -8.21%
O=C(NCc1cccs1)c1cc(S(=O)(=O)N2CCOCC2)ccc1F | -1.99%
CCOC(=O)N1CCN(CC(O)COC2CC(C)CC(C)(C)C2)CC1 (stereo not shown) | -0.968%
COc1ccc(C2C=C(c3ccc(C(C)C)cc3)Nc3nnnn32)cc1OC (stereo not shown) | 3.45%
CCOC(=O)C1=C(CNCC2CCCO2)NC(=O)NC1c1ccc(C)cc1 (stereo not shown) | -1.03%
NS(=O)(=O)c1ccc(CNC(=O)c2cc(-c3ccccc3)nc3ccccc23)cc1 | 2.76%
O=[N+]([O-])c1ccc(CN2CCCCCCC2)s1 | 0.605%
CCN(CC)CCCNC(=O)c1cccs1 | 3.48%
CS(=O)(=O)N(CC(=O)N1CCc2ccccc2C1)c1ccc(Br)cc1 | 3.35%
Cn1c(=O)c2c(-c3ccccc3Cl)n(C3CCCCC3)cc2n(C)c1=O | 2.02%
Cc1ccc2nc(NC(=O)c3c(O)c4c(n(Cc5ccco5)c3=O)CCCC4)sc2c1 | 4.35%
COC(=O)c1c(C)oc2ccc(O)c(CN3CCC(C)CC3)c12 | 3.74%
COc1cc(Br)c(C2C(C#N)=C(N)Oc3[nH]nc(-c4cccnc4)c32)cc1OC (stereo not shown) | -0.725%
CC(C)N(C(=O)c1ccc(C(=O)N(C)C)cc1)C(C)C | -1.48%
CC1CCCCC1NC(=O)C1CC=CCC1C(=O)O (stereo not shown) | -4.69%
CCC(C)Nc1nc(Cl)nc(N2CCOCC2)n1 (stereo not shown) | -1.48%
COc1ccc(/C=C2/SC(Nc3ccccc3Cl)=NC2=O)cc1OC | 23%
CCc1ccc(-c2cn3cc(C)sc3n2)cc1 | 1.27%
Cc1ccc(-c2nc(NC(=O)c3sc(C)nc3C)sc2C)cc1 | 4%
CCN(CC)C(=O)c1ccc(NC(=O)C(F)(F)F)cc1 | 2.65%
COc1ccc(Br)cc1C1=N/C(=C\c2ccc(C)o2)C(=O)O1 | 1.45%
COCC(C)NC(=O)c1cc(-c2ccccc2OC)on1 (stereo not shown) | 0.0654%
CCCN(Cc1cc(Cl)ccc1O)CC1CC1 | 1.38%
O=C(/C=C/c1ccccc1)C1(O)CCCCC1 | 10.2%

Compound | % Inhibition @ 10 uM
Cc1cc(-c2ccc(C)c(S(=O)(=O)NCCCc3ccccc3)c2)on1 | -0.795%
C=CCNC(=O)c1ccccc1NC(=O)CN(c1ccc(C)cc1C)S(C)(=O)=O | 2.86%
O=C(/C=C/c1ccco1)N1CCn2c(nc3ccccc32)C1 | 5.34%
CO/N=C(\C(=O)O)c1cn2ccccc2n1 | -5.01%
CCN(Cc1ccccc1)C(=O)Cn1c(=O)cc(C)c2c(C)nn(-c3cccc(Cl)c3C)c21 | 4.97%
O=C(Cn1ccc2cc(S(=O)(=O)N3CCCC3)ccc21)NCCN1CCOCC1 | 1.41%
Cc1nn(-c2ccccc2)c(-n2cccc2)c1C(=O)N1CCC(C(=O)NC(C)(C)C)CC1 | 3.4%
O=C(NCc1ccccc1)c1cc(-c2ccncc2)nc2ccccc12 | 1.16%
O=C(Nc1cccc(C(F)(F)F)c1)Nc1ccc(Cl)cn1 | 1.7%
CS(=O)(=O)N(CC(=O)Nc1ccccc1C(=O)N1CCOCC1)c1ccccc1 | -2.46%
CCC(C)NC(=O)C(NS(=O)(=O)c1cccc2nsnc12)c1ccccc1 (stereo not shown) | -1.43%
Cc1ccc2c(c1)-c1onc(C(=O)N3C(C)CCCC3C)c1CO2 (stereo not shown) | 3.31%
CSc1ccc(C(=O)N[C@@H](Cc2cc(I)c(O)c(I)c2)C(=O)NCC#N)cc1 | -1.41%
COc1ccc(C2OC[C@H]3O[C@H](O)[C@H](NC(C)=O)[C@@H](O)[C@@H]3O2)cc1 (stereo partly shown) | -0.725%
O=C(Nc1ccccc1)c1ccccc1NC(=O)C1CC=CCC1C(=O)O (stereo not shown) | 5.08%
CCc1ccccc1N/C=C1/C(=O)NC(=O)N(c2ccccc2)C1=O | 0.673%
COc1ccc(CN2CCN(C(=O)c3cccc(Cl)c3)CC2)c(OC)c1 | 2.98%
O=C(O)CCn1c(SCCOc2ccccc2)nc2ccccc21 | -0.473%
CCCOc1ccc(/C=C(\C#N)c2nc3ccccc3n2C)cc1OC | -6.6%
COc1ccc([C@@H]2[C@H]3CCCC[C@]3(O)CCN2C)cc1OC | 2.6%
CCc1nn(CC(=O)N2CCC(Cc3ccccc3)CC2)c(=O)c2cccn12 | -7.52%
O=C(O)CN1C(=O)S/C(=C\c2ccc3c(c2)OCO3)C1=O | -3.45%
COc1cccc(/C=C2/NC(=O)NC2=O)c1OCC(=O)Nc1ccccc1 | 3.17%
COc1ccc(S(=O)(=O)N2CCN(Cc3cc(OC)c(O)c(OC)c3)CC2)cc1 | -10.8%

From paper PMC6919601, “Identification of Plasmodium dipeptidyl aminopeptidase allosteric inhibitors by high throughput screening” (PLoS ONE, 2019)
